{"source": "the BET-seq Pho4 binding data (Le et al. 2018)", "note": "Some of the results follow. The energies were worked out here from pooled read counts, against the library average; single values are noisy.", "data": [{"molecular_target": "T1, Pho4 (S. cerevisiae) (UniProt P07270)", "T1 sequence": "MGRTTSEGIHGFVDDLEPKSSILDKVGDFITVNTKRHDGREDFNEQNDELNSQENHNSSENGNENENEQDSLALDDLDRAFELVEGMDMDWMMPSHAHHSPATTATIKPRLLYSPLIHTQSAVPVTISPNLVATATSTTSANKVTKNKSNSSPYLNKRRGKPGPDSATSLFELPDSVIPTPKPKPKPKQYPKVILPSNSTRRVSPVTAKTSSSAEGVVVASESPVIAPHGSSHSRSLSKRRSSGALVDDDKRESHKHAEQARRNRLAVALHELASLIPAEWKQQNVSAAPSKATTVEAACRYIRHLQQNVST", "test": "relative binding free energy (BET-seq); higher = weaker binding", "details": "reference: library average", "units": {"relative binding free energy": "kcal/mol"}, "values": [{"sequence": "AGTGACACGTGAGGGA", "relative binding free energy": 0.17}, {"sequence": "TCGCACACGTGTGGTG", "relative binding free energy": 0.15}, {"sequence": "CTTGTCACGTGTTGAA", "relative binding free energy": 0.15}, {"sequence": "GGTCACACGTGCGGGT", "relative binding free energy": -0.06}, {"sequence": "CTTTGCACGTGCGTGG", "relative binding free energy": -0.01}, {"sequence": "CGTATCACGTGTTTGG", "relative binding free energy": 0.05}, {"sequence": "TGCGGCACGTGCGGGG", "relative binding free energy": -0.16}, {"sequence": "CTTGTCACGTGGGGAC", "relative binding free energy": -0.09}, {"sequence": "AGTGGCACGTGCGCTG", "relative binding free energy": -0.28}, {"sequence": "CTCAGCACGTGAGGTT", "relative binding free energy": 0.26}, {"sequence": "GCTTGCACGTGGGGCT", "relative binding free energy": -0.28}, {"sequence": "CGTTGCACGTGTCATT", "relative binding free energy": 0.08}, {"sequence": "GTGGCCACGTGTTGTA", "relative binding free energy": -0.07}, {"sequence": "CAAGGCACGTGGGTTA", "relative binding free energy": -0.24}, {"sequence": "TGAATCACGTGGGGAG", "relative binding free energy": 0.14}, {"sequence": "CTTCACACGTGTGGTG", "relative binding free energy": 0.05}, {"sequence": "GAAACCACGTGTGGTT", "relative binding free energy": 0.17}, {"sequence": "TGGTGCACGTGACATT", "relative binding free energy": 0.1}, {"sequence": "TGGAACACGTGTTTGG", "relative binding free energy": 0.06}, {"sequence": "GGTAACACGTGTGTGT", "relative binding free energy": 0.04}, {"sequence": "ATGAGCACGTGCAGGG", "relative binding free energy": -0.17}, {"sequence": "CTGTGCACGTGAGGCT", "relative binding free energy": 0.25}, {"sequence": "CGCTTCACGTGGGATT", "relative binding free energy": 0.3}, {"sequence": "AATGTCACGTGTGGAT", "relative binding free energy": 0.1}, {"sequence": "GTCTACACGTGAGTGA", "relative binding free energy": 0.36}, {"sequence": "TGGATCACGTGAAATT", "relative binding free energy": 0.42}, {"sequence": "GTGGGCACGTGAGATG", "relative binding free energy": 0.2}, {"sequence": "GAGGTCACGTGAGGAT", "relative binding free energy": 0.52}, {"sequence": "CGTTACACGTGGAAGG", "relative binding free energy": 0.14}, {"sequence": "GTAAGCACGTGATGCG", "relative binding free energy": -0.01}, {"sequence": "GAGGGCACGTGGGTTT", "relative binding free energy": -0.1}, {"sequence": "TGCAGCACGTGTTCGG", "relative binding free energy": -0.07}, {"sequence": "GTTGGCACGTGCTATG", "relative binding free energy": -0.17}, {"sequence": "GTCTACACGTGGGGGT", "relative binding free energy": 0.01}, {"sequence": "GGATGCACGTGAGGGA", "relative binding free energy": 0.3}, {"sequence": "AGTCACACGTGTGGGA", "relative binding free energy": -0.03}, {"sequence": "ATTGTCACGTGGGGAG", "relative binding free energy": 0.04}, {"sequence": "TGTCTCACGTGATGCG", "relative binding free energy": 0.2}, {"sequence": "GTTTTCACGTGCACGG", "relative binding free energy": 0.17}, {"sequence": "GAAGTCACGTGGCTGT", "relative binding free energy": 0.13}, {"sequence": "AGGGCCACGTGGTGGG", "relative binding free energy": -0.17}, {"sequence": "CGTGTCACGTGATAAG", "relative binding free energy": 0.14}, {"sequence": "TGGCTCACGTGTAGTG", "relative binding free energy": 0.21}, {"sequence": "TTTGACACGTGGAACG", "relative binding free energy": 0.07}, {"sequence": "TTAGACACGTGTAATT", "relative binding free energy": 0.15}, {"sequence": "ACGTTCACGTGGGGGC", "relative binding free energy": 0.18}, {"sequence": "TCGGACACGTGGGGTA", "relative binding free energy": -0.24}, {"sequence": "ACGTGCACGTGTTGAT", "relative binding free energy": -0.09}, {"sequence": "TGTTACACGTGTAGAA", "relative binding free energy": 0.22}, {"sequence": "TCTGGCACGTGGATTT", "relative binding free energy": 0.12}, {"sequence": "CTGGCCACGTGGTTGG", "relative binding free energy": -0.09}, {"sequence": "GGATGCACGTGTTTTG", "relative binding free energy": 0.13}, {"sequence": "TGTGTCACGTGAGGTA", "relative binding free energy": 0.25}, {"sequence": "GTATCCACGTGGGGGC", "relative binding free energy": -0.15}, {"sequence": "TTTGGCACGTGCCATG", "relative binding free energy": -0.21}, {"sequence": "ATAGTCACGTGGATGG", "relative binding free energy": 0.07}, {"sequence": "CTGCGCACGTGTAGGG", "relative binding free energy": -0.25}, {"sequence": "TGCAACACGTGGGGCT", "relative binding free energy": -0.14}, {"sequence": "CTGTGCACGTGTGCTT", "relative binding free energy": 0.04}, {"sequence": "GATGTCACGTGGGCTG", "relative binding free energy": -0.01}, {"sequence": "TGCTTCACGTGTTACG", "relative binding free energy": 0.32}, {"sequence": "GTGTTCACGTGTCCTG", "relative binding free energy": 0.24}, {"sequence": "TGAAGCACGTGTTGGT", "relative binding free energy": -0.1}, {"sequence": "ATAAACACGTGTAGGA", "relative binding free energy": 0.15}, {"sequence": "TACTTCACGTGGAGGG", "relative binding free energy": 0.16}, {"sequence": "TAGTTCACGTGCTAAT", "relative binding free energy": 0.29}, {"sequence": "AGAGGCACGTGAGTAT", "relative binding free energy": -0.01}, {"sequence": "ATTGACACGTGATAGG", "relative binding free energy": 0.03}, {"sequence": "CTTTACACGTGGTAAG", "relative binding free energy": 0.09}, {"sequence": "TAGTGCACGTGGGGAG", "relative binding free energy": -0.11}, {"sequence": "TTATGCACGTGTTAGA", "relative binding free energy": 0}, {"sequence": "GTTGTCACGTGGGACG", "relative binding free energy": 0.06}, {"sequence": "AACGGCACGTGTTAGT", "relative binding free energy": -0.04}]}]}
